Results reported in PubChem BioAssay AID1454 (National Center for Advancing Translational Sciences (NCATS), 2008).
Where “and” joins values, the source holds several entries; their conditions need not be identical. Equal entries are not always repeated. Among all 130,000 compounds or so, about 550 (0.42%) were called active. The inconclusive results got no clear call from the source; some entries with a clear call stand among them for comparison. Calls follow the shape of the dose curve; as a rule, active = well fitted inhibition curve with a large enough effect; inconclusive = small, poorly fitted or top-dose-only effect, or effect the other way; inactive = flat fitted curve, though single readings scatter. A potency beside an inconclusive call is a rough fit, not a confirmed value.

Assay: qHTS Assay for Inhibitors of the ERK Signaling Pathway using a Homogeneous Screening Assay; Stimulation with EGF; also: nearly all actives have a fitted effect of over 55% in size
Conditions: HEK293-V1b, EGF-stimulated phospho-ERK AlphaScreen
Outline: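 Homogeneous cell-based phospho-ERK assay: HEK293/V1b cells in 1% FBS, compound 30 min then EGF 5 min, AlphaScreen luminescence. Activity normalized between DMSO and 25 nM EGF controls; AC50 from Hill modelling.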
Potency is read from the fitted curve at half-maximal effect; tags tell the direction and shape of the fitted curve.

Structure (SMILES) | Potency
O=C(CCc1nnc(Cc2ccc3c(c2)OCO3)o1)NC(c1ccccn1)C(F)(F)F (stereo not drawn) | inconclusive: 39.8 µM [inhibitor, single point]
CCOC(=O)C1C(c2ccc([N+](=O)[O-])cc2)C2C(=O)NN=C2CC1(C)O (stereo not drawn) | inconclusive: 25.1 µM [inhibitor, single point]
c1ccc(Nc2scc(-c3ccccc3)[n+]2Cc2ccco2)cc1 | inconclusive: 22.4 µM [inhibitor, single point]
CCCCN1CCC[C@@H]1CNC(=O)c1cc(C#N)c2ccccc2c1OC | inactive
Cc1ccc2[nH]c(=O)c3cc(C(=O)N(C)c4ccccc4C)sc3c2c1 | inconclusive: 14.1 µM [inhibitor, partial curve]
Cc1ccc(NNC(=O)c2cc(C(C)(C)C)nn2Cc2ccccc2)cc1 | inconclusive: 25.1 µM [inhibitor, single point]
CC1CCN(c2ncnc3ccccc23)CC1 | inactive
Cc1ccc(NC(=O)c2cccs2)cc1S(=O)(=O)Nc1cccc(Cl)c1 | active: 20 µM
COc1ccc(CCN2C(=O)CC(Cc3ccccc3)C2=O)cc1OC (stereo not drawn) | inconclusive: 39.8 µM [inhibitor, single point]
Cc1ccc(C(C)C)c(OCCCN(C)Cc2ccccc2)c1 | inconclusive: 22.4 µM [inhibitor, single point]
CCc1cccc(C)c1NC(=O)COC(=O)c1c2c(nc3ccccc13)/C(=C\c1cccs1)CCC2 | inconclusive: 20 µM [activator, single point]
O=C1NC(=S)S/C1=C\c1cc2ccccc2nc1N1CCCCC1 | inconclusive: 15.8 µM [inhibitor, single point]
CC(C)C(=O)N(Cc1ccc(F)cc1)Cc1nc2ccccc2c(=O)[nH]1 | inactive
Nc1nc(N)nc(COc2ccccc2)n1 | inactive
Cc1cccc(N2CCN(C(=S)c3ccc([N+](=O)[O-])cc3)CC2)c1 | active: 17.8 µM
CC(C)(Oc1ccc([C@@H]2CC2(Cl)Cl)cc1)C(=O)O | inactive
Cc1cc2ccccn2c1C(=O)c1ccc(Cl)c([N+](=O)[O-])c1 | inconclusive: 15.8 µM [inhibitor, partial curve]
c1ccc(C2c3[nH]c4ccccc4c3CCN2Cc2cccn2-c2ccccn2)nc1 (stereo not drawn) | inconclusive: 22.4 µM [inhibitor, partial curve]
Cn1c(=O)c(/C=C/c2ccccc2)nc2ccccc21 | inconclusive: 22.4 µM [activator, partial curve]
COc1ccc(C)cc1NC(=O)N1CCCc2ccccc21 | inactive
Cc1cccc(-c2cc3nc(C)cc(C)n3n2)c1 | inactive
CC(=O)c1cccc(NC(=O)c2ccc(OC3CSC3)cc2)c1 | inconclusive: 6.31 µM [inhibitor, single point]
C=CCN1C(=O)/C(=C\C=C2\N(C)c3ccccc3C2(C)C)SC1=S | inconclusive: 3.55 µM [inhibitor, full curve, poor fit]

Structure (SMILES) | Potency
O=C(NN1C(=O)C2C3c4ccccc4C(c4ccccc43)C2C1=O)c1ccccc1 (stereo not drawn) | inconclusive: 28.2 µM [activator, partial curve]
COc1ccc(OCC(O)CN2CCN(c3ccccc3)CC2)cc1 (stereo not drawn) | inconclusive: 22.4 µM [inhibitor, partial curve]
OC(CCN1CCCCC1)(c1ccccc1)c1ccccc1 | inconclusive: 1 µM [inhibitor, full curve, poor fit]
OC(CNC1CCCCC1)COCCOc1ccc(Br)cc1 (stereo not drawn) | inactive
COc1ccc(C(=O)Nc2nc(C)cs2)cc1S(=O)(=O)N1CCCC1 | inconclusive: 5.01 µM [inhibitor, partial curve]
N/C(=N\OC(=O)c1ccc(Cl)cc1Cl)c1ccccn1 | inactive
COC(=O)C1=C(C)[C@H](O)[C@@H](C)[C@](C)(c2cc(OC)c(C)c(OC)c2COc2ccccc2)O1 | inactive
COc1ccccc1NS(=O)(=O)c1cc(NC(=O)c2ccc(Cl)nc2)ccc1Cl | inconclusive: 35.5 µM [inhibitor, single point]
CCOC(=O)c1ccccc1NC(=O)CSc1ccccc1 | inconclusive: 20 µM [activator, partial curve]
COc1cccc(N=c2oc3cc(O)ccc3cc2C(=O)NCC2CCCO2)c1 (stereo not drawn) | active: 28.2 µM
CCCCCCCn1c(=O)c(C(=O)OC)c(N)c2ccccc21 | inconclusive: 39.8 µM [inhibitor, single point]
CN1CCN(C2=Cc3ccccc3Sc3cc(F)c(F)cc32)CC1 | inconclusive: 31.6 µM [inhibitor, single point]
Cc1nnnn1/C(=C\c1ccccc1)C(=O)OCC(=O)N1CC2(C)CC1CC(C)(C)C2 (stereo not drawn) | inconclusive: 12.6 µM [inhibitor, partial curve]
Cc1cc(C)n2nc(N)c(N=Nc3ccccc3)c2n1 | inconclusive: 1.78 µM [inhibitor, partial curve, poor fit]
Cc1ccc(-c2n[nH]c(=S)c3ccccc23)cc1 | inconclusive: 0.398 µM [activator, full curve, poor fit]
C[C@@H]1C[C@](C)(C(=O)c2ccco2)C=C1c1ccco1 | inactive
COc1ccc(-c2nc3c(c(=O)c4ccccc4n3C)c(=O)n2Cc2ccccc2)cc1 | inactive
O=C(c1ccncc1)N1CCC2(CC1)CN(c1ccccn1)C2 | inconclusive: 25.1 µM [inhibitor, single point]
O=C1c2cccc(O)c2C(=O)c2c(O)cccc21 | inconclusive: 14.1 µM [inhibitor, partial curve] and inconclusive: 28.2 µM [inhibitor, partial curve]
Cc1ccc(-c2csc(NNC(=O)c3ccccc3)n2)cc1 | inconclusive: 31.6 µM [inhibitor, single point]
CCOC(=O)/C(=N\Nc1ccccc1[N+](=O)[O-])c1csc(N)n1 | inconclusive: 28.2 µM [inhibitor, partial curve]
S=C(Nc1cccc(Cl)c1)N(CCCN1CCCC1)Cc1cccn1Cc1ccc(Cl)cc1 | inactive
CN(C)c1ccc(/C=C2/C=C(c3ccc4c(c3)CCCC4)OC2=O)cc1 | inconclusive: 12.6 µM [inhibitor, partial curve]

Structure (SMILES) | Potency
O=C(O)c1cccc(NC(=S)N/N=C/c2ccccc2OCc2cccc(Br)c2)c1 | inconclusive: 39.8 µM [inhibitor, single point]
O=C(c1ccccc1)N1CCN(c2nc3ccc([N+](=O)[O-])cc3s2)CC1 | inconclusive: 10 µM [inhibitor, partial curve]
CC/C(=N/OC(=O)c1cccc(C)c1)C(=O)c1cccs1 | inconclusive: 28.2 µM [inhibitor, single point]
CCN(CC)C(=O)CSc1nnnn1-c1ccc(F)c(Cl)c1 | inconclusive: 1.78 µM [activator, full curve, poor fit]
Cc1ccc(SC[C@H](c2ccccc2)N2CCN(CCc3ccccc3)CCC2=O)cc1 | inconclusive: 11.2 µM [inhibitor, partial curve]
CCCCc1ccc(-c2ccc(Br)cc2)nc1 | inconclusive: 22.4 µM [activator, partial curve]
CC(=O)Oc1cc2c3c(c1)/C(=C1/SC(=S)NC1=O)C(=O)N3C(C)(C)C=C2C | inconclusive: 12.6 µM [inhibitor, partial curve]
O=C(NCCC1=CCCCC1)c1ccc(Cl)c([N+](=O)[O-])c1 | inconclusive: 31.6 µM [inhibitor, single point]
CCOC(CNC(=O)c1ccc(N2CCc3ccccc32)c([N+](=O)[O-])c1)OCC | inconclusive: 28.2 µM [inhibitor, partial curve]
CC(C)(C)c1ccc(C(=O)Nc2ccc(Oc3cccnc3)nc2)cc1 | inconclusive: 12.6 µM [inhibitor, partial curve, poor fit]
O=C(COC(=O)c1cc(S(=O)(=O)Nc2ccccc2Cl)ccc1O)Nc1nc2ccccc2s1 | inconclusive: 39.8 µM [inhibitor, single point]
Cc1noc(COc2ccccc2OCc2onc(C)c2Cl)c1Cl | inconclusive: 39.8 µM [activator, single point]
O=C(Nc1nc2ccccc2s1)c1ccc(N2CCCCC2)c([N+](=O)[O-])c1 | inconclusive: 17.8 µM [inhibitor, partial curve]
CCc1nnc(NC(=O)c2ccc3ccccc3n2)s1 | inactive
N#C/C(C(=O)NCCc1ccccc1)=C1/N=C(NC(=O)c2cccs2)c2ccccc21 | inconclusive: 44.7 µM [activator, partial curve, poor fit]
CN(C)c1ccc(C=Nc2ccc(N(C)C)cc2)cc1 | inconclusive: 25.1 µM [inhibitor, single point]
CCCN1C(=O)/C(=C\C=C2/Sc3ccccc3N2CC)SC1=S | inconclusive: 3.55 µM [inhibitor, partial curve]
Cn1c(CNC(=O)c2ccccc2F)nnc1SCc1ccc(Cl)cc1 | inconclusive: 8.91 µM [inhibitor, single point]
Cc1cccc2sc(NNC(=O)c3cc(-c4cccs4)nc4ccccc34)nc12 | active: 12.6 µM
Cc1oc(-c2cccc(Cl)c2)nc1CN1CCC(C(=O)N2CCN(c3ccccc3F)CC2)CC1 | inconclusive: 39.8 µM [inhibitor, single point]
O=[N+]([O-])c1ccc2nc(-c3ccncc3)[nH]c2c1 | inactive
COc1ccccc1NC(=S)NCCN1CCOCC1 | inactive
